This passage reports self-cleavage results from the RNAGym collection of RNA variant scans (doi:10.7554/elife.90254).

B1: LINE1-mini (parent)
chain: GGCAGAGCUCAACACAGCGUGGCAAAGUGGCUGUGGCUAGACUGCC

The source gives no read counts; variants with many changes may rest on few reads.

The variants in this series derive from B1. The experiment in a line: self-cleavage, relative activity (ratio to wild type); higher = more cleavage; in vitro, sequencing; the parent is a self-cleaving ribozyme.
Turning to GGCAGAGCUCAAAACAGCGUGGCAAACUGGCAGUGGCUAGACUGCC [C13A G27C U32A], the self-cleavage was determined as 0.04. Under GGCAGAGCUCAAAACAGCGUGGCAAAGUGGCGGUGGCUAGACUGCU [C13A U32G C46U] stands 0.03; under GGCAGAGCUCAAAACAGCGUUGCAAAUUGGCUUAGGCUAAACUCCC [C13A G21U G27U G33U U34A G40A G44C], 0.01; under GGCAGAGCUCAAAACAGCGUGGCAAAGUGCCUGUGGGUAGACUGCC [C13A G30C C37G], 0.02. In the case of GGCAGAGCUCAAAACAGCUUGGCGGAGUGGCUGUGGCUAGACUGCC [C13A G19U A24G A25G], the self-cleavage turned out to be 0.13.

With GGCAGAGCUCAAAACAUGGUGGCAAAGUGGCUGUGGCUAAACUGCC [C13A G17U C18G G40A], the self-cleavage came out at 0.18. Take GGCAGAGCUCAAAACAGCGAGGCAAAGUGGCUGUGGCAAGACUGCA [C13A U20A U38A C46A]: the self-cleavage came to 0.02. As for GGCAGAGCUCAAAACAGCGUGGCAAAGGGGCUGUGGCUAUACUGCC [C13A U28G G40U], the self-cleavage was determined as 0.06. For the variant GGCAGAGCUCAAAACACCGUAGCAAAGUGGCUGUGGCUAGACUGCC [C13A G17C G21A], the self-cleavage turned out to be 0.01. Next, GGCAGAGCUCAAAACACCGUUGCAAAGUGGCUGUGGCUAGACUGCC [C13A G17C G21U]: 0.1. Under GGCAGAGCUCAAAACAGCGUGGCAAAGGGUCUGUGGCUAGACUGCC [C13A U28G G30U] stands 0.15; under GGCAGAGCUCAAAACAGCGUUGCCAAGUGGCUGUGGCUAGACUGCC [C13A G21U A24C], 0.04. On to GGCAGAGCUCAAAACAUCGUGGCAAUGUGGCUGUGGCUAGUCUGCC [C13A G17U A26U A41U], for which the self-cleavage stood at 0.15. Consider GGCAGAGCUCAAAACAGCCGUGCAAAGUGGCGGUGGCUAGACUGCC [C13A G19C U20G G21U U32G], for which the self-cleavage stood at 0.16. With GGCAGAGCUCAAAACAGCGUGGCAAAGUGGCGGUGACUAGACUGCC [C13A U32G G36A], the self-cleavage is 0.05. Next, GGCAGAGCUCAAAACAGCAAGGCAACGUGGCUGUGGCUAGACUGCA [C13A G19A U20A A26C C46A]: 0.01; GGCAGAGCUCAAAACAGCGUGGCAAAGUGGCUGUUGCUAGACUACC [C13A G35U G44A]: 0.11. As for GGCAGAGCUCAAAACAGCAUGGCAAAGUUGCUGUGGCUAGACAGCC [C13A G19A G29U U43A], the self-cleavage was found to be 0.09. Next, GGCAGAGCUCAAAACAGCGUCGCAAAGUGGCUGUAGCUGGACUGCA [C13A G21C G35A A39G C46A]: 0.1; GGCAGAGCUCAAAACAGCGGGUCAACGUGGCUGUGGCUCGACUGCC [C13A U20G G22U A26C A39C]: 0.06; GGCAGAGCUCAAAACAGCUUGGCAAAGUGGCUGCGACUCGAUUGCC [C13A G19U U34C G36A A39C C42U]: 0.02. Consider GGCAGAGCUCAAAACACCGUGGCAAAGUGGCUGUGGCUAAGCUGCC [C13A G17C G40A A41G], for which the self-cleavage is 0.04.

As to GGCAGAGCUCAAAACAGCGAGGCAAAGUGGCUGUGGCUAGACUGGC [C13A U20A C45G], the self-cleavage stood at 0.03. Under GGCAGAGCUCAAAACAGCGUGGCAAAGUGGCAAUGGCUAGACUGCC [C13A U32A G33A] stands 0.03; under GGCAGAGCUCAAAACAGCGUGGCAAAAUGGCUGUGGGUAGACUGCC [C13A G27A C37G], 0.02; under GGCAGAGCUCAAAACAGCGUGGCAAAGUGGCGGUGGCUAGACUGAC [C13A U32G C45A], 0.01. Under GGCAGAGCUCAAAACAGCGAGGCAAAGUGGCUGUGGCGAGACUGCC [C13A U20A U38G] stands 0.01. Next, GGCAGAGCUCAAAACAGCGUGGCAAAGUGGCUAUGGCUAGACUACC [C13A G33A G44A]: 0.07. Consider GGCAGAGCUCAAAACAGCGUGGCAAAGUGGCUGUAGCCAGACUGCC [C13A G35A U38C], for which the self-cleavage came out at 0.1.

Regarding GGCAGAGCUCAAAACAGCGUGUCAAAGUGGCUGUGGCUAGACAGCC [C13A G22U U43A], the self-cleavage was found to be 0.09.

For GGCAGAGCUCAAAACAGCGUGCCAUAGUGGCGGUGGCUAGACUGCC [C13A G22C A25U U32G], the self-cleavage came out at 0.02. GGCAGAGCUCAAAACAUCGUGACAAAGUGGCUGUGGGUAGACUGCC [C13A G17U G22A C37G]: the self-cleavage turned out to be 0.06.

With GGCAGAGCUCAAAACAGCGUCGCAAAGUGCCGGGGGUUAGACUGCC [C13A G21C G30C U32G U34G C37U], the self-cleavage was 0.02. As to GGCAGAGCUCAAAACAGCGUGGCAAAGUGUCGGUCGCUAGACUGCC [C13A G30U U32G G35C], the self-cleavage turned out to be 0.07.

With GGCAGAGCUCAAAACAGCGUUGCAAAGUGGGUGUGGAUAGACUGCC [C13A G21U C31G C37A], the self-cleavage was 0.04. GGCAGAGCUCAAAACAGCCUGGCAAAGUGGGUGUGGCUAGACUGCC [C13A G19C C31G]: the self-cleavage came out at 0.05. Take GGCAGAGCUCAAAACAUCGUGGCAAAGUGGCUGUGGCUAGACUGCA [C13A G17U C46A]: the self-cleavage turned out to be 0.08. Regarding GGCAGAGCUCAAAACAGCGUGGCAAAUCAGCUGUGGCUGGACUGCC [C13A G27U U28C G29A A39G], the self-cleavage was found to be 0.02. With GGCAGAGCUCAAAACAUCGUGGCAAAUUGGCUGUGGCUAGACUGCC [C13A G17U G27U], the self-cleavage came to 0.18. For the variant GGCAGAGCUCAAAACAGCGUUGCAAAGUAGCUGUGCCUAGACUGCC [C13A G21U G29A G36C], the self-cleavage stood at 0.1. For GGCAGAGCUCAAAACAGCGUUGCAAAGUGGCUGUUGCUAGACAGCC [C13A G21U G35U U43A], the self-cleavage came to 0.2. Consider GGCAGAGCUCAAAACAGCGUGCCAAAUUGGCUGUGGCUAAGCUGCC [C13A G22C G27U G40A A41G], for which the self-cleavage is 0.04. Next, GGCAGAGCUCAAAACAGCGUGGCAAAAUGGCUGUGUCUAUACUGCC [C13A G27A G36U G40U]: 1.06; GGCAGAGCUCAAAACAGCGUGGCAAAGUGGCUAUGGCGAGACUGCU [C13A G33A U38G C46U]: 0.01; GGCAGAGCUCAAAACAGCGUGGCAAAGUGGCUGUGGCUAGAAUCCC [C13A C42A G44C]: 0.09. Turning to GGCAGAGCUCAAAACAGCGUGGCAAAGUGGCUCUGGCUAGACUGCU [C13A G33C C46U], the self-cleavage turned out to be 0.04. GGCAGAGCUCAAAACAGCCAGGCAAAGUGGCGGUGGCUAGACUGCC [C13A G19C U20A U32G]: the self-cleavage was determined as 0.01. On to GGCAGAGCUCAAAACACCGUGGCAAAGUGGCUGUGCCUAGACUGGC [C13A G17C G36C C45G], for which the self-cleavage is 0.01. Under GGCAGAGCUCAAAACAGCGUUGCAAAGUGGCUGUUGCUAGACUGCC [C13A G21U G35U] stands 0.74. In the case of GGCAGAGCUCAAAACAGCGUGGCAAAGCGGCUGUGACUAGACUGCC [C13A U28C G36A], the self-cleavage is 0.24. Under GGCAGAGCUCAAAACAGCGUGGCAAAGGGGCUUUGGCUAGACUCCC [C13A U28G G33U G44C] stands 0.01.

For GGCAGAGCUCAAAACAGCGUGGCAAAGUGACUGUGGCGAGACUACC [C13A G30A U38G G44A], the self-cleavage turned out to be 0.05. As for GGCAGAGCUCAAAACAGCGAGGCAAAGUGGCUGUGGAAAGACUCCC [C13A U20A C37A U38A G44C], the self-cleavage came to 0.06. Regarding GGCAGAGCUCAAAACAGCGUGGCAAAGUUGCAGUGGCUAGACUUCC [C13A G29U U32A G44U], the self-cleavage was found to be 0.02. In the case of GGCAGAGCUCAAAACAGCGUGGCAAAGUGGCUGUGGCUAGAAAGCC [C13A C42A U43A], the self-cleavage stood at 0.05.

In the case of GGCAGAGCUCAAAACAGCGUGGCAAAGUGACUGUGGCUAGAUUGCC [C13A G30A C42U], the self-cleavage stood at 0.
